According to the supplement of paper PMC9446081:
Out of some 39,000 compounds screened, about 220 (0.56%) showed activity. The list shows a part of the results.

Each compound was assayed on Escherichia coli K-12 BW25113 (assay: relative growth (OD600 normalised to plate interquartile mean) (fraction); higher = less growth inhibition, active = 0.2 or less). Settings: 50 µM; LB; incubation time: overnight (16-24 h).
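Also: static incubation at 37 °C against the wild-type strain, values averaged over two biological replicates.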

SMILES	relative growth
C[C@@H]1CN([C@H](C)CO)C(=O)c2c(c3ccccc3n2C)-c2ccccc2CO[C@@H]1CN(C)S(=O)(=O)c1cn(C)cn1	inactive: 0.996
CCCN(C)C[C@H]1OCCCC[C@@H](C)Oc2ccc(NS(=O)(=O)c3cn(C)cn3)cc2C(=O)N([C@@H](C)CO)C[C@@H]1C	inactive: 0.983
COc1cccc([C@@H](N)c2ccccc2)c1	inactive: 0.981
O=C(N[C@@H]1CC[C@H](CCNS(=O)(=O)c2ccccc2)O[C@H]1CO)c1cnccn1	inactive: 0.946
Cc1ccc(S(=O)(=O)Nc2cccc3c2O[C@@H](CN(C)Cc2ccc(Cl)c(Cl)c2)[C@H](C)CN([C@@H](C)CO)C3=O)cc1	inactive: 1.03
CC(C)c1cc(N2CC[C@@H](N)C2)nc(N)n1	inactive: 0.977
C[C@@H]1CN([C@H](C)CO)C(=O)c2cc(NC(=O)Nc3ccc4c(c3)OCO4)ccc2O[C@@H](C)CCCCO[C@@H]1CN(C)C(=O)Cc1ccccc1	inactive: 1.01
C[C@H]1CN([C@@H](C)CO)C(=O)c2cc(NC(=O)CCCN(C)C)ccc2O[C@H]1CN(C)Cc1ccc(Oc2ccccc2)cc1	inactive: 0.945
COCCO[C@H]1CCN[C@H]1Cc1cnn(C)c1	inactive: 1.01
C[C@H](O)C#Cc1ccc2c(c1)O[C@@H](CN(C)C(=O)c1ccncc1)[C@@H](C)CN([C@H](C)CO)S2(=O)=O	inactive: 0.986
C[C@H](CO)N1C[C@H](C)[C@@H](CN(C)Cc2ccc(Oc3ccccc3)cc2)Oc2c(NC(=O)Nc3ccc(F)cc3)cccc2C1=O	inactive: 0.942
C[C@@H]1CN([C@@H](C)CO)C(=O)c2cc(NC(=O)CCCCCC(=O)Nc3ccccc3N)ccc2O[C@@H]1CN(C)C(=O)Nc1ccc(C(F)(F)F)cc1	inactive: 0.976
O=C(NCCCO)c1cc2ccccc2oc1=O	inactive: 0.948
C[C@H]1CN([C@@H](C)CO)C(=O)c2cc(NS(=O)(=O)c3cn(C)cn3)ccc2O[C@H]1CN(C)C(=O)Nc1ccc2c(c1)OCO2	inactive: 0.98
COc1ccc(S(=O)(=O)N(C)C[C@H]2OCCCC[C@H](C)Oc3ccc(NC(=O)NC4CCCCC4)cc3C(=O)N([C@@H](C)CO)C[C@H]2C)cc1	inactive: 0.958
C[C@@H]1CN([C@H](C)CO)C(=O)c2cc(NC(=O)CCC(F)(F)F)ccc2O[C@H]1CN(C)Cc1ccc(Cl)c(Cl)c1	inactive: 1.01
Cc1cc(C(=O)Nc2cccc3c2O[C@H](CN(C)S(C)(=O)=O)[C@@H](C)CN([C@@H](C)CO)C3=O)n(C)n1	inactive: 0.998
COCC(=O)Nc1ccc2c(c1)OC[C@@H](C)N(C(=O)Cc1ccccn1)C[C@H](C)[C@H](OC)CN(C)C2=O	inactive: 1
COc1ccc(S(=O)(=O)N(C)C[C@H]2OCCCC[C@@H](C)Oc3ccc(NC(=O)Nc4c(C)noc4C)cc3C(=O)N([C@@H](C)CO)C[C@@H]2C)cc1	inactive: 0.992
CC(C)CC#Cc1ccc2c(c1)O[C@@H](CN(C)C(=O)c1cccnc1)[C@H](C)CN([C@@H](C)CO)S2(=O)=O	inactive: 0.976

SMILES	relative growth
C[C@@H]1CCCCO[C@H](CN(C)Cc2ccncc2)[C@H](C)CN([C@@H](C)CO)C(=O)c2cc(NC(=O)Nc3ccc4c(c3)OCO4)ccc2O1	inactive: 0.967
C[C@@H]1CN([C@H](C)CO)C(=O)c2cccc(NC(=O)Nc3ccc(C(F)(F)F)cc3)c2O[C@H]1CN(C)Cc1ccc(-c2ccccc2)cc1	inactive: 0.987
COc1ccc(CN(C)C[C@H]2OCCCC[C@@H](C)Oc3ccc(NC(=O)NC4CCCCC4)cc3C(=O)N([C@@H](C)CO)C[C@H]2C)cc1	inactive: 0.988
CN(C)C(=O)N1C[C@@H]2COC[C@@]2(CN2CCOCC2)C1	inactive: 0.996
COCC(=O)Nc1ccc2c(c1)OC[C@@H](C)N(Cc1ccccc1OC)C[C@H](C)[C@H](OC)CN(C)C2=O	inactive: 0.981
CN1CCN(C(=O)C[C@@H]2CC[C@H]3[C@H](COc4ccc(NC(=O)C5CCOCC5)cc4C(=O)N3C)O2)CC1	inactive: 1
COc1ccc([C@@H]2CC=CC[C@H](C)Oc3ccccc3C(=O)N(C)[C@H](Cc3ccccc3)C(=O)N2)c(OC)c1	inactive: 0.991
C[C@@H]1CN([C@H](C)CO)C(=O)c2cc(N(C)C)ccc2O[C@@H](C)CCCCO[C@H]1CN(C)C(=O)Nc1ccc(C(F)(F)F)cc1	inactive: 1.04
N#CCOc1cccc2ccccc12	inactive: 0.977
Cc1ccc(C(=O)N2CCN(c3ccc(NC(=O)COc4c(C)cc(C)cc4Br)cc3)CC2)cc1	inactive: 1.04
C[C@H](CO)N1C[C@H](C)[C@@H](CN(C)Cc2ccc(C(F)(F)F)cc2)Oc2ccc(NS(C)(=O)=O)cc2C1=O	inactive: 0.958
C[C@@H]1CCCCO[C@H](CN(C)C(=O)NC2CCCCC2)[C@@H](C)CN([C@H](C)CO)C(=O)c2cc(NS(=O)(=O)c3ccc(F)cc3)ccc2O1	inactive: 0.956
C[C@H]1CN([C@@H](C)CO)C(=O)c2cc(NC(=O)Nc3ccc(F)cc3)ccc2O[C@H]1CN(C)S(=O)(=O)c1cn(C)cn1	inactive: 0.997
C[C@@H]1CCCCO[C@H](CN(C)CC2CCCCC2)[C@H](C)CN([C@H](C)CO)C(=O)c2cc(NC(=O)C3CCCCC3)ccc2O1	inactive: 0.976
C[C@@H]1CCCCO[C@@H](CN(C)C)[C@H](C)CN([C@@H](C)CO)C(=O)c2cc(NC(=O)Nc3ccc(C(F)(F)F)cc3)ccc2O1	inactive: 0.975
Cc1cc(C(=O)Nc2cccc3c2O[C@@H](CN(C)S(C)(=O)=O)[C@H](C)CN([C@H](C)CO)C3=O)n(C)n1	inactive: 0.997
COc1cccc(S(=O)(=O)Nc2ccc3c(c2)[C@H]2C[C@H](CC(=O)N4CCCCC4)O[C@@H](CO)[C@H]2O3)c1	inactive: 1.01
C[C@@]1(O)N(CC(=O)O)C(=O)OC12CCCCC2	inactive: 0.992
N[C@@H](CSS(=O)(=O)O)C(=O)O	inactive: 1.01
Cc1noc(C)c1S(=O)(=O)Nc1ccc2c(c1)CC(=O)N([C@H](C)CO)C[C@@H](C)[C@@H](CN(C)C(=O)Nc1ccccc1)O2	inactive: 1
